Results are given in words; binding and its absence hold for the method and conditions named. For some of these results: Binding seen in cells or lysates may run through a third protein. Some entries that bind do so weakly or less than the wild type. For some of these results: Tags and fused reporters may be left off the sequences shown.
Experiments:
[1] = target: T1, GST-RasGAP SH2-SH3-SH2 domain (171 to 448) (UniProt P20936); assay: pull-down; GST pull-down with different GST fusion proteins of RasGAP or GST alone; HPK1 detected
T1 sequence: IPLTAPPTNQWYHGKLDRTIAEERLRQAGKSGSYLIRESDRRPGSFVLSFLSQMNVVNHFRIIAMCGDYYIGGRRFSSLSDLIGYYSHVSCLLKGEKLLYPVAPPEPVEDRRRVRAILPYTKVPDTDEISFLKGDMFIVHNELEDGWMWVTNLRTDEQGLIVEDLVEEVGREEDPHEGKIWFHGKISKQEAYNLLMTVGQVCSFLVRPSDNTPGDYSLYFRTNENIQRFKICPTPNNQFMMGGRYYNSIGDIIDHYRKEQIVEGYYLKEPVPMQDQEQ

Chains of the proteins cited; added tags and fusions are not shown. Lines headed by an entry give the natural chain unless they say otherwise; changes in a name come on top. A line that says so, or that is headed by a name, gives the form on record, which may keep a tag or linker.
UniProt P62993: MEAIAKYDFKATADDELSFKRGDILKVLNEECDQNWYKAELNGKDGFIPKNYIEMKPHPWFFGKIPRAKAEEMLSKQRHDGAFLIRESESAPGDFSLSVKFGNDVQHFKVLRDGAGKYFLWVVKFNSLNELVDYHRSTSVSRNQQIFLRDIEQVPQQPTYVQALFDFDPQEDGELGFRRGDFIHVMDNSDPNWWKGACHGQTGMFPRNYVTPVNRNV
UniProt Q92918: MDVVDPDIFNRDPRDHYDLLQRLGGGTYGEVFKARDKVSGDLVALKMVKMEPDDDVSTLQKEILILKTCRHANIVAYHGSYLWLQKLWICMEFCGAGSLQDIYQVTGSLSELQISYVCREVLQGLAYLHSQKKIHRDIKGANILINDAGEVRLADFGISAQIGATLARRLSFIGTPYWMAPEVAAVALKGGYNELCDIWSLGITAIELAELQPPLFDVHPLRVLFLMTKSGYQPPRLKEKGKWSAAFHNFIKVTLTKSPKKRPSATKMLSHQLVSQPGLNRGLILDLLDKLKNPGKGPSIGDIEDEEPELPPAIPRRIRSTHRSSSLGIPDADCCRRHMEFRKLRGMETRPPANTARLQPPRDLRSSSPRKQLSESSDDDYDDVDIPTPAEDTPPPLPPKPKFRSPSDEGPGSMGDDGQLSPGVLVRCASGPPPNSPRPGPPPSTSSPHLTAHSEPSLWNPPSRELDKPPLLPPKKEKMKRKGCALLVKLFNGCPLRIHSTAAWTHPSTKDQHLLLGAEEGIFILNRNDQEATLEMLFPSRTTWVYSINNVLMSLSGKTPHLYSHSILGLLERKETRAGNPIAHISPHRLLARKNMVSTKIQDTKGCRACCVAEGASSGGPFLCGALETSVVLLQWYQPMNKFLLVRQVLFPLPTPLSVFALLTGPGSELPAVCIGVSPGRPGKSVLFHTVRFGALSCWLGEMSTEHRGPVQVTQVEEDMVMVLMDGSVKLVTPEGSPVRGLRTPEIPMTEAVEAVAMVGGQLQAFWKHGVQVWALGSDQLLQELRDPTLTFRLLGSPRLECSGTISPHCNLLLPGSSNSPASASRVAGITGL
M46, kinase-dead mutant of HPK1, transgene expressed in the pancreata of M46 Bac-cre (MC) mice (Q92918, form named): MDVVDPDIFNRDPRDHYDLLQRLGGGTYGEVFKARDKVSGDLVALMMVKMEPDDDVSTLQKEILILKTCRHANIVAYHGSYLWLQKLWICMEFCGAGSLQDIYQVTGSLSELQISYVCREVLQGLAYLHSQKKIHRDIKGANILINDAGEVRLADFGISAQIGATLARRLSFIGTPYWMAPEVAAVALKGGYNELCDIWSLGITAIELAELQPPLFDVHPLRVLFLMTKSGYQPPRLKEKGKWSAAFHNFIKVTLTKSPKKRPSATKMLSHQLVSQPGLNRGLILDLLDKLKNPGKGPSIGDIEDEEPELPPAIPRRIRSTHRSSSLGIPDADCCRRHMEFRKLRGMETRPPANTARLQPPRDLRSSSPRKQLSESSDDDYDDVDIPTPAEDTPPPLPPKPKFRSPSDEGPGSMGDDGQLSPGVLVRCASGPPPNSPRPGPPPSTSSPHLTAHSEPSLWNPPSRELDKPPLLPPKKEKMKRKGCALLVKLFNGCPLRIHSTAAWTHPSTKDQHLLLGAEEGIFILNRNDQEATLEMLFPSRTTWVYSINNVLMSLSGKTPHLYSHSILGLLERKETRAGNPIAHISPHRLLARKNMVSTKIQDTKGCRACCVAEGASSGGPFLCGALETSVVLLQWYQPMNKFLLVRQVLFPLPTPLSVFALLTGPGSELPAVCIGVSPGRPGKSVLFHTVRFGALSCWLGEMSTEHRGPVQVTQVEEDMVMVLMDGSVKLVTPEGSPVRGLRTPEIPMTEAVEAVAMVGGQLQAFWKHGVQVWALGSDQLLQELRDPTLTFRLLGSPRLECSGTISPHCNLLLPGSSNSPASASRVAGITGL

[2] = target: T2, GST-RasGAP SH2 domain (175 to 274) (UniProt P20936); assay: as above
T2 sequence: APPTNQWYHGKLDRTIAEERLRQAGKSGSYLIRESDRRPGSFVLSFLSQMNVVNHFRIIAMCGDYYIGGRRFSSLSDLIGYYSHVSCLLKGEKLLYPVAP

[3] = target: T3, Endogenous RasGAP in mouse pancreata (mouse (endogenous in pancreas)) (UniProt E9PYG6); assay: co-IP; pancreata of HC and MC mice; 500 ug of total proteins with 2 ug of antibody or normal IgG; immunoblot
T3 sequence: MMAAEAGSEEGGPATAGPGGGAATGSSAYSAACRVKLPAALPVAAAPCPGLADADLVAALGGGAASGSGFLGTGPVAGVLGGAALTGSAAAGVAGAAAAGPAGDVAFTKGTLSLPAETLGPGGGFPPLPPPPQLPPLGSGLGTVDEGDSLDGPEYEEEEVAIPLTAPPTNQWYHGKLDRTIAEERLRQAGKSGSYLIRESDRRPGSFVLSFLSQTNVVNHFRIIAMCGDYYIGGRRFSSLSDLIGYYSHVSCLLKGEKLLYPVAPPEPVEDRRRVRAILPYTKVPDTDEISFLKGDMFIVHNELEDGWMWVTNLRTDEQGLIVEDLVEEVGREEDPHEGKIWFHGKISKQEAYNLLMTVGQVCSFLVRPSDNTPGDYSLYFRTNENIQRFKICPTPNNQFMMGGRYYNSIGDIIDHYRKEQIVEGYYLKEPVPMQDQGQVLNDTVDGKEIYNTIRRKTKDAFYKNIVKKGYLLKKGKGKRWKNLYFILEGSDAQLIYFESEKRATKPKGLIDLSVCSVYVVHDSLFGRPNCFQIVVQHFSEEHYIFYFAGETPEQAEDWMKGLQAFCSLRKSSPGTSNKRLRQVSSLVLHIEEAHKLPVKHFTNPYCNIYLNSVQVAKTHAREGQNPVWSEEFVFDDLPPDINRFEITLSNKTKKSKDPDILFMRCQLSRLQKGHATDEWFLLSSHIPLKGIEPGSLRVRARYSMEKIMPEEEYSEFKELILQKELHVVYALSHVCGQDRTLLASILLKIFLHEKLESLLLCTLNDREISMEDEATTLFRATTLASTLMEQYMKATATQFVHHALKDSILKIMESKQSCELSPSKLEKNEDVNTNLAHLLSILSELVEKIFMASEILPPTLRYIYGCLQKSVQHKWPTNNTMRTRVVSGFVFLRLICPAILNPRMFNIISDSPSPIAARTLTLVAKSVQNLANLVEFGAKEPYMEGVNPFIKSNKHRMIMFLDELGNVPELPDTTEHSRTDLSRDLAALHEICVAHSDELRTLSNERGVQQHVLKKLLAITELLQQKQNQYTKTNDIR

[4] = target: T4, Ras GTPase-activating protein (RasGAP) in Panc-1/HPK1 stable cells (human (endogenous in Panc-1)) (UniProt P20936); assay: peptide or protein array; membrane filter arrayed with 400 antibodies (Hypromatrix) incubated overnight at 4°C with lysate of Panc-1/HPK1 stable cells treated with 2.0 uM MG132 for 16 hours; detected by HRP-conjugated anti-FLAG antibody
T4 sequence: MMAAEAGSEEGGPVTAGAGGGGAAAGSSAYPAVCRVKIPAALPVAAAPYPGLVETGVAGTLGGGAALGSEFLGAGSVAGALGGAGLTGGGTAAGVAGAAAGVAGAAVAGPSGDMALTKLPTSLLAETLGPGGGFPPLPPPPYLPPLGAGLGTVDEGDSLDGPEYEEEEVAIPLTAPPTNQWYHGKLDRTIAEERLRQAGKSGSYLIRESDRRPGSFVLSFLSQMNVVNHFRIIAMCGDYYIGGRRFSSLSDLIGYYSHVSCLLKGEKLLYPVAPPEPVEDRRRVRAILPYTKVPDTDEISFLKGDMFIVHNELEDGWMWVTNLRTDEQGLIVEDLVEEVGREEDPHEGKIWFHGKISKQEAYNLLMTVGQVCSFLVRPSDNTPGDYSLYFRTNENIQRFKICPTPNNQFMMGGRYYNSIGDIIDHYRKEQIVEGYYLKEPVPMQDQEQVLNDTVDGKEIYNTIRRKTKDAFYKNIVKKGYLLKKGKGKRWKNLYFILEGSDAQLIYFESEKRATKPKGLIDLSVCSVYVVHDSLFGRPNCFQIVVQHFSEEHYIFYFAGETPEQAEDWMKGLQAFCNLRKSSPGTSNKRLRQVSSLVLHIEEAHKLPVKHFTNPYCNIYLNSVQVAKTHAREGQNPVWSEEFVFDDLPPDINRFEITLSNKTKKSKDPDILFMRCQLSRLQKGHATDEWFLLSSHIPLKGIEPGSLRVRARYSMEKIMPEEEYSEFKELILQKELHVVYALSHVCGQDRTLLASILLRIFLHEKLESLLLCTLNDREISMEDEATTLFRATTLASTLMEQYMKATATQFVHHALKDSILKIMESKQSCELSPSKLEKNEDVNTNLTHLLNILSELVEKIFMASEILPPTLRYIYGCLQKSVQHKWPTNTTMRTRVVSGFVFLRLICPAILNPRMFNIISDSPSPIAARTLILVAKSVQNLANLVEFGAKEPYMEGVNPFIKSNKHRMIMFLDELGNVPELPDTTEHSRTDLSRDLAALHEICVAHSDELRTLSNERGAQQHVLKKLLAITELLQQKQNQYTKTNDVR

[5] = target: Grb2 in Panc-1/HPK1 stable cells (human (endogenous in Panc-1)) (UniProt P62993); assay: as above
[6] = target: T4, Ras GTPase-activating protein (RasGAP) in Panc-1/HPK1 stable cells (human (endogenous in Panc-1)); assay: co-IP; Panc-1/HPK1 stable cells (C1) treated with 2.0 uM MG132; 500 ug of total proteins with 2 ug of antibody or normal IgG; immunoblot

HPK1 protein of the GST pull-down assay (from UniProt Q92918 1-833)
binding [1]: binds | binding [2]: no binding

HPK1 transgene expressed in the pancreata of HPK1 Bac-cre (HC) mice (from UniProt Q92918 1-833)
binding [3]: binds

Hematopoietic progenitor kinase 1 (HPK1), FLAG-tagged, in Panc-1/HPK1 stable cells (from UniProt Q92918 1-833)
binding [4]: binds | binding [5]: binds | binding [6]: binds

M46, kinase-dead mutant of HPK1, transgene expressed in the pancreata of M46 Bac-cre (MC) mice (from UniProt Q92918 1-833)
binding [3]: binds

— publication PMC10266776
